Assay results: PubChem BioAssay AID624418 (National Center for Advancing Translational Sciences (NCATS), 2012)
In all, about 410,000 compounds went through this assay and about 530 (0.13%) were called active. The shares of active, inactive and inconclusive entries below differ from those in the screen. The call rests on the fitted dose curve; in most records, active means well fitted inhibition curve with a large enough effect; inconclusive means small, poorly fitted or top-dose-only effect, or another doubt; inactive means no such curve, though single readings can be large or run the other way. Where the call is inconclusive, the potency comes from a doubtful curve fit.
Potency means the concentration at half of the fitted maximal effect.

Assay: qHTS of GLP-1 Receptor Inverse Agonists: Cytotox Screen
Details: HEK293 cAMP-luciferase reporter cells, luminescence, 24 h; series mostly up to 38.3 µM
Procedure, shortened: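 Quantitative HTS format, 1536 wells, 200 cells/uL seeded. Compounds: 23 nL, 24 h, 37 °C. Detection: luciferase reagent, luminescence at 12 min RT; decreased signal taken as cytotoxic.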
In the case of `CCN(CC)c1ccc(N=Cc2ccc(N(CC)CC)cc2O)cc1`, the Potency is reported as inconclusive: 11.2 µM [inhibitor, partial curve].
For `COc1ccc(-n2nc3c(N4CCC(C(=O)NCc5ccccc5C)CC4)nnc(C)c3c2C)cc1`, the Potency was inconclusive: 22.4 µM [inhibitor, single point].
In the case of `CN(CC(=O)Nc1ccc(C#N)cc1)Cc1ccc(Cl)cc1`, the Potency is reported as “inactive”.
In the case of `CC(=O)C[C@H](O)CC(=O)[C@@H]1OC(=O)[C@H](C)C/C=C\Cc2ccccc21`, the Potency is reported as “inactive”.
With `COc1ccc(NC(=O)CCC(=O)N/N=C/c2ccc([N+](=O)[O-])s2)cc1` the Potency was inconclusive: 11.2 µM [inhibitor, single point].
For `Clc1cnc(N/N=C/c2cccs2)c(Cl)c1`, the Potency was inconclusive: 10 µM [inhibitor, partial curve].
With `CCCCSc1nc2c([nH]1)c(=S)n(C)c(=O)n2C` the Potency was inconclusive: 0.316 µM [inhibitor, full curve, poor fit].
With `CCOC(=O)c1c(-c2ccccc2)oc2ccc(O)c(CN3CCN(C)CC3)c12` the Potency was inconclusive: 11.2 µM [inhibitor, single point].
In the case of `COc1cc(C(=O)Nc2cccc(-c3nnc(-c4ccco4)o3)c2)ccc1OC(C)=O`, the Potency is reported as inconclusive: 28.2 µM [inhibitor, single point].
For `Cc1cc(=O)n2c3ccccc3n(CC(O)CN3CCN(Cc4ccccc4)CC3)c2c1C#N` (stereo not drawn), the Potency was inconclusive: 8.91 µM [inhibitor, partial curve, poor fit].
With `CC(C)NC(=S)NC(=O)/C=C/c1cccc2ccccc12` the Potency was “inactive”.
With `Cc1c(C)n(Cc2ccc(Cl)cc2)c2ccc(C(=O)NCCCN3CCOCC3)cc12` the Potency was inconclusive: 28.2 µM [inhibitor, single point].
In the case of `Cn1c(=NC(=O)CCl)sc2ccccc21`, the Potency is reported as inconclusive: 10 µM [inhibitor, partial curve, poor fit].
With `O=C(NCCc1ccccc1)c1ccc2c(c1)N(Cc1ccc(F)cc1)C(=O)CS2` the Potency was “inactive”.
For `Cc1ccc(C2CC(=O)NC(SCC(=O)OCc3ccccc3)=C2C#N)o1` (stereo not drawn), the Potency was inconclusive: 6.31 µM [inhibitor, partial curve].
With `COc1ccccc1Nc1nc(NCCO)nc(N)c1[N+](=O)[O-]` the Potency was inconclusive: 28.2 µM [inhibitor, single point].
For `COC1=C(OC)C(=O)C(Sc2ccc3ccccc3c2)=CC1=O`, the Potency was inconclusive: 31.6 µM [inhibitor, partial curve, poor fit].
For `O=C(NCCCN1CCCC1)c1ccc2c(c1)N(Cc1cccc(Cl)c1)C(=O)c1ccccc1S2=O` (stereo not drawn), the Potency was inconclusive: 20 µM [inhibitor, single point].
In the case of `COc1ccc(NC(=O)c2ccc(-c3ccc([N+](=O)[O-])cc3)o2)cc1OC`, the Potency is reported as inconclusive: 28.2 µM [inhibitor, single point].
For `O=C(NC(=S)Nc1ccc(CN2CCOCC2)cc1)c1ccc2c(c1)OCCO2`, the Potency was inconclusive: 10 µM [inhibitor, partial curve].
In the case of `Cc1ccccc1C(=O)Nc1ccnn1C1CCN(Cc2cnn(C(C)C)c2)CC1`, the Potency is reported as “inactive”.
In the case of `CCCS(=O)(=O)Nc1ccc(Nc2c3ccccc3nc3ccccc23)c(OC)c1`, the Potency is reported as inconclusive: 0.501 µM [inhibitor, full curve, poor fit].
In the case of `CC1CCCN(CC(O)CN2CCN(CC(O)CN3CCCC(C)C3)C(C)C2)C1` (stereo not drawn), the Potency is reported as “inactive”.
With `CC(C)(C)NCCOCCOc1ccccc1-c1ccccc1` the Potency was inconclusive: 14.1 µM [inhibitor, single point].
With `Cc1c(Cl)cccc1NC(=S)N=Nc1c(O)n(CN2CCOCC2)c2ccccc12` the Potency was active: 1.41 µM.
With `CC1=CC(=O)C(C(C)C)=C/C1=N/OS(=O)(=O)c1ccccc1` the Potency was inconclusive: 28.2 µM [inhibitor, single point].
With `CC1=CC(C)(C)NC(=S)N1c1ccc(Cl)cc1` the Potency was inconclusive: 14.1 µM [inhibitor, partial curve, poor fit].
For `O=C(Nc1ccccc1)Nc1cccc(C(F)(F)F)c1`, the Potency was “inactive”.
In the case of `Cc1ccc2nc(-c3ccc(NC(=S)NCCC(C)C)cc3)sc2c1`, the Potency is reported as “inactive”.
In the case of `CCOC(=O)C1(Cc2ccccc2)CCN(Cc2cn(CC(=O)OC)c3ccccc23)CC1`, the Potency is reported as inconclusive: 28.2 µM [inhibitor, single point].
With `COc1cnc(SCc2c(Cl)cccc2Cl)nc1Cl` the Potency was “inactive”.
In the case of `CCCN(CCC)CCCNC(=O)c1cc2c(=O)n(C)c3ccccc3c2s1`, the Potency is reported as “inactive”.
For `O=C(N/N=C/c1cc(Br)c(Br)o1)c1ccc2c(c1)OCCO2`, the Potency was inconclusive: 12.6 µM [inhibitor, single point].
For `COc1ccccc1C(=O)NC(=S)Nc1ccc(N2CCOCC2)c(Cl)c1`, the Potency was “inactive”.
For `C#CCN(C[C@@H]1[C@@H](OC(=O)Nc2cccs2)[C@@H](OC(=O)Nc2cccs2)Cn2c(=O)ccc(=O)n21)S(=O)(=O)c1ccc(C)cc1`, the Potency was inconclusive: 3.98 µM [inhibitor, full curve, poor fit].
In the case of `O=C(NCC(=O)N1CCN(c2ccc([N+](=O)[O-])cc2)CC1)c1ccco1`, the Potency is reported as inconclusive: 6.31 µM [inhibitor, full curve, poor fit].
For `N#CC(C#N)=C1C(=O)N(CCN2CCCCC2)c2ccccc21`, the Potency was inconclusive: 10 µM [inhibitor, partial curve, poor fit].
In the case of `O=C(OCC(=O)C12CC3CC(CC(C3)C1)C2)c1ccc(O)cc1`, the Potency is reported as inconclusive: 28.2 µM [inhibitor, single point].
With `COc1ccc(Nc2c3c(nc4ccc(C)cc24)CCC3)cc1` the Potency was inconclusive: 12.6 µM [inhibitor, single point].
For `CCOc1c(Cl)cc(CNc2ccc(N3CCCC3)cc2)cc1OC`, the Potency was inconclusive: 6.31 µM [inhibitor, partial curve, poor fit].
In the case of `Cc1cc(C(=O)Nc2sc3c(c2C#N)CCC(C)C3)cs1` (stereo not drawn), the Potency is reported as “inactive”.
For `c1ccc(-c2cc3c(N4CCOCC4)ncnc3s2)cc1`, the Potency was “inactive”.
With `COC(=O)CCC(=O)OC1(C)C(=O)C2=CN(c3ccccc3)C(c3ccc(OC)cc3)=CC2=C(Br)C1=O` (stereo not drawn) the Potency was “inactive”.
With `CCCC(=O)N(C1CC(C)C(C#N)(C#N)C1(C#N)C#N)N(C)C` (stereo not drawn) the Potency was inconclusive: 28.2 µM [inhibitor, single point].
In the case of `Cc1ccc(-c2nc3ccccc3[nH]2)cc1NC(=O)COc1ccccc1[N+](=O)[O-]`, the Potency is reported as inconclusive: 10 µM [inhibitor, partial curve].
For `CCC(C)c1ccc(NC(=S)NC(C)C2CCCO2)cc1` (stereo not drawn), the Potency was inconclusive: 22.4 µM [inhibitor, partial curve, poor fit].
For `CCCCNC(=O)C1(C)CCN1C(=O)c1cc2ccccc2s1` (stereo not drawn), the Potency was “inactive”.
For `O=C(O)c1ccc(N/N=C/c2ccc(OC(=O)c3ccccc3Cl)cc2)cc1`, the Potency was “inactive”.
For `CC(C)n1c(/C=C/c2ccccc2)nc2ccccc21`, the Potency was “inactive”.
For `N#C/C(=N\Nc1cccc(C(F)(F)F)c1)C(=O)c1csc(-c2cccnc2)n1`, the Potency was inconclusive: 11.2 µM [inhibitor, partial curve, poor fit].
For `COc1ccc(-c2csc(N(CCCN(C)C)C(=O)c3ccc(C)cc3)n2)cc1`, the Potency was “inactive”.
With `O=C(Nc1nc(NC(=O)c2ccco2)n(-c2ccccc2)n1)c1ccccc1` the Potency was inconclusive: 28.2 µM [inhibitor, single point].
For `CCC(=O)c1ccc(OCC(O)Cn2nc(C)cc2C)cc1` (stereo not drawn), the Potency was “inactive”.
In the case of `C=CCOc1ccc(C2C(C(=O)c3cccs3)=C(O)C(=O)N2c2nnc(C)s2)cc1` (stereo not drawn), the Potency is reported as “inactive”.
With `CCSc1nnc(NC(=O)c2ccc3ccccc3n2)s1` the Potency was inconclusive: 3.98 µM [inhibitor, full curve, poor fit].
With `CCN1CCN(Cc2ccc(NC(=O)c3cc(NC(=O)c4cncc(-c5ccc(C#N)cc5)c4)cc(OC)c3)cc2C(F)(F)F)CC1` the Potency was inconclusive: 28.2 µM [inhibitor, single point].
For `O=C(NCc1ccccc1)N1CCn2c(nc3ccccc32)C1`, the Potency was “inactive”.
For `O=C(COC(=O)c1cc([N+](=O)[O-])ccc1N1CCOCC1)Nc1cccc(F)c1`, the Potency was inconclusive: 20 µM [inhibitor, single point].
For `COc1ccc(C(C)(O)c2nc(-c3ccncc3)cs2)cc1` (stereo not drawn), the Potency was “inactive”.
With `Cc1ccc2c(c1)cc1c(=O)n(Cc3cccc(Cl)c3)nc(C)n12` the Potency was “inactive”.
With `COC(=O)[C@@]12C[C@@H](CC(=O)NCC34CC5CC(CC(C5)C3)C4)C(=O)N(Cc3ccco3)C1=CCC(C)(C)C2` the Potency was “inactive”.
For `CC1=C(CO)C(=O)OC([C@@H](C)C2CC[C@H]3C4C[C@H]5O[C@]56[C@@H](O)C=CC(=O)[C@]6(C)C4CC[C@]23C)C1` (stereo partly drawn), the Potency was active: 12.6 µM.
For `COC(=O)C1=C(C)N(Cc2ccccc2)C(=NCc2cccc(Cl)c2)N[C@H]1c1ccccc1`, the Potency was inconclusive: 15.8 µM [inhibitor, single point].
For `Cc1ccc(CN2COc3ccc4c(C)cc(=O)oc4c3C2)cc1`, the Potency was “inactive”.
With `Cc1cc(-c2ccccc2)n(-c2cc(N/N=C/c3ccccc3O)ncn2)n1` the Potency was inconclusive: 2.51 µM [inhibitor, full curve, poor fit].
In the case of `C[C@]12CC[C@H](O)CC1=CCC1C2CC[C@@]2(C)C1CC[C@@H]2NC(=O)[C@@H](N)Cc1ccccc1` (stereo partly drawn), the Potency is reported as inconclusive: 28.2 µM [inhibitor, single point].
With `CCN(CCNC(=O)C1CCN(Cc2nc(-c3ccc(Cl)cc3)oc2C)CC1)c1ccccc1` the Potency was inconclusive: 15.8 µM [inhibitor, single point].
For `Cc1cc(C(=O)N2CCN(c3ccc([N+](=O)[O-])cc3)CC2)co1`, the Potency was inconclusive: 28.2 µM [inhibitor, single point].
